Laboratory results from the supplement of paper PMC12217912.
The list shows a part of the results. Sequences were assembled here from the parent chain. Values near 0.05 are background.

B1: TEV protease; numbered along this chain (parent)
chain: MGESLFKGPRDYNPISSSICHLTNESDGHTTSLYGIGFGPFIITNKHLFRRNNGTLVVQSLHGVFKVKDTTTLQQHLVDGRDMIIIRMPKDFPPFPQKLKFREPQREERICLVTTNFQTKSMSSMVSDTSCTFPSGDGIFWKHWIQTKDGQCGSPLVSTRDGFIVGIHSASNFTNTNNYFTSVPKNFMELLTNQEAQQWVSGWRLNADSVLWGGHKVFMVKPEEPFQPVKEATQL

Variants of: B1
Assay: raw area under fraction-flipped curve 0-4 h after induction (AUC4h, not background-subtracted), DNA-recorder readout of cleavage of the substrate (dimensionless); higher = more cleavage of the substrate by the protease variant
Conditions: temperature: 34 °C; time window: 0-4 h after rhamnose induction
Experimental: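 In vivo DNA recorder in E. coli TOP10(DE3) ΔrhaA at 34 °C. Each TEVp single-site mutant (parent TEVp 0) is paired with a single-site variant of the 7-mer TEVs (canonical ENLYFQ|S). The substrate sits between flexible linkers in a Bxb1-sfGFP-TEVs-SsrA fusion, so cleavage stabilises Bxb1 and speeds flipping of a recombination array, read by NGS. The value is the raw area under the fraction-flipped curve over 0-4 h after rhamnose induction (AUC4h), with ≥20 reads per time point. It is not background-subtracted; inactive controls average about 0.047.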
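Also: Bxb1 expression induced with 0.2% (w/v) L-rhamnose at OD600 near 0.5, cultures sampled hourly, flipped fraction per protease–substrate barcode pair counted by paired-end Illumina sequencing.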

Variant	area with substrate ENLYFQC	area with substrate ENLYFQD	area with substrate ENLYFQG	area with substrate ENLYFQH	area with substrate ENLYFQI	area with substrate ENLYFQK	area with substrate ENLYFQL	area with substrate ENLYFQN	area with substrate ENLYFQP	area with substrate ENLYFQQ	area with substrate ENLYFQR	area with substrate ENLYFQS	area with substrate ENLYFQT	area with substrate ENLYFQW	area with substrate ENLYFQY	area with substrate ENLYFQF	area with substrate ENLYFQM	area with substrate ENLYFQV	area with substrate ENLYFQE
V200C	0.0819	0.0625	0.133	0.0879	0.0786	0.057	0.0571	0.0847	0.0799	0.0687	0.0585	0.0839	0.0592	0.0593	0.0749	–	–	–	–
L156N	0.0565	0.0553	0.058	0.0464	0.0431	0.0497	0.0491	0.0528	0.0551	0.0457	0.0323	0.0545	0.0534	0.0569	0.0557	0.0361	0.0461	–	–
I85L	0.138	0.0641	–	0.0788	0.0653	–	0.0695	–	0.0349	–	0.0608	0.113	0.0696	–	0.0748	–	0.112	0.064	–
H168S	0.0569	–	0.0934	–	0.0567	–	0.0653	0.0553	–	–	0.07	0.0616	0.021	–	–	–	–	–	–
H168P	0.0486	0.0685	0.0682	–	0.0583	–	0.0369	–	–	–	0.0509	0.0548	0.0709	0.0487	–	–	0.0433	–	–
H168R	0.0433	–	0.042	–	–	0.0605	0.0489	–	–	0.0624	–	0.0601	0.0606	0.0683	0.0487	0.0476	0.07	0.0596	0.0576
T176G	0.0798	0.0594	–	–	0.0616	0.0672	0.0725	0.109	0.0518	–	–	0.0713	0.0491	–	–	0.0507	0.0599	0.069	–
S201D	0.0842	0.0709	0.0646	0.0642	0.0526	0.0509	0.0675	0.0761	0.0601	–	0.0547	0.0728	0.0712	–	0.0608	–	0.0586	0.0496	–
E108Q	0.099	0.0537	0.0766	0.0717	0.0486	0.0593	0.0552	0.0676	–	–	0.0571	0.0729	0.0606	0.0635	–	0.0635	0.0684	–	–
D128S	0.164	0.0951	0.117	0.108	0.0609	–	0.0652	0.157	–	0.101	–	0.144	–	0.0627	–	–	0.0224	0.0579	–
T192N	0.106	–	–	0.0813	0.0637	0.0703	0.0533	0.0798	0.0659	0.0811	0.0837	0.105	0.0622	–	0.0911	0.0826	–	0.0636	–
M88P	0.0834	–	0.0647	0.0598	–	0.0439	–	0.0594	0.0784	–	0.0555	0.0759	–	0.0476	–	–	0.0681	–	–
M88N	0.0728	–	0.0769	0.0595	–	0.0498	0.0522	0.0671	0.0524	–	0.0481	0.0826	0.0414	0.049	–	–	–	0.048	–
G138R	0.098	–	0.091	–	0.073	–	–	–	0.0574	–	0.0509	0.0888	–	0.059	–	0.076	–	–	–
N186A	0.115	–	–	–	–	–	–	–	–	–	–	0.101	–	0.0854	–	–	–	–	–
N186Y	0.106	0.075	0.0659	–	–	0.0679	–	–	–	0.0333	–	0.0997	0.0734	–	–	–	0.0864	0.0607	–

Variant	area with substrate ENLYFQC	area with substrate ENLYFQD	area with substrate ENLYFQG	area with substrate ENLYFQH	area with substrate ENLYFQI	area with substrate ENLYFQK	area with substrate ENLYFQL	area with substrate ENLYFQN	area with substrate ENLYFQP	area with substrate ENLYFQQ	area with substrate ENLYFQR	area with substrate ENLYFQS	area with substrate ENLYFQT	area with substrate ENLYFQW	area with substrate ENLYFQY	area with substrate ENLYFQF	area with substrate ENLYFQM	area with substrate ENLYFQV	area with substrate ENLYFQE
Q198F	0.0949	0.0814	0.0809	0.0649	0.0566	0.0614	0.063	0.068	0.0547	0.0744	0.064	0.091	0.0615	0.0618	0.0669	–	0.0872	0.0657	–
D161Q	0.0842	0.0563	0.0523	–	0.0515	0.0503	0.0426	–	0.0491	–	0.0589	0.0621	0.0604	0.0417	–	0.0725	–	0.0436	–
R160C	0.125	0.0721	–	0.0648	0.0606	0.0521	0.0568	0.0854	–	0.0553	–	0.102	0.0718	0.058	0.0731	–	0.106	0.0639	–
R160M	0.116	–	–	–	–	–	0.0761	–	–	–	–	0.102	–	–	–	–	–	–	–
R160T	0.15	–	–	0.0834	–	0.0603	0.0616	0.0731	0.057	–	–	0.116	0.0736	–	–	–	0.107	–	–
S130R	0.0924	–	–	0.0676	0.0683	–	–	0.0646	0.0826	–	0.0543	0.0823	0.0614	–	–	–	0.0595	–	–
C152T	0.0451	–	–	0.0615	0.0593	0.0563	–	0.0489	–	–	0.056	0.0618	0.0549	0.0585	0.06	0.051	0.0479	0.066	–
C152R	0.0451	0.0664	0.0709	0.0384	–	–	0.0662	0.0667	0.0531	0.0663	0.0366	0.0581	0.0548	0.0726	0.0499	–	0.0593	0.0696	–
G202C	0.0648	–	0.0599	0.0656	–	–	–	–	–	0.0435	0.055	0.0669	0.0553	0.06	–	–	0.0463	–	–
G202F	0.06	0.0581	0.0571	–	0.0625	0.0561	0.0834	0.0628	–	–	0.0616	0.0625	0.0628	0.0432	–	–	–	0.0616	0.0579
T119E	0.084	–	0.103	–	0.0657	0.0612	–	–	–	–	0.0401	0.102	–	–	–	–	–	–	–
T119I	0.151	0.0675	0.0882	–	0.0651	0.03	–	0.0855	–	–	0.0575	0.106	–	0.0587	–	–	–	–	–
V165N	0.113	0.0632	0.062	0.0696	0.0561	0.0434	–	–	0.0528	–	0.0517	0.0479	–	0.0431	–	–	0.0342	–	–
W141S	0.0561	0.0522	0.0936	0.0638	0.054	0.0536	–	–	0.0677	–	0.0512	0.0578	–	0.0598	0.062	0.0465	0.0552	0.0584	–
F163H	0.124	0.0899	–	–	0.106	–	–	0.0846	–	–	–	0.112	0.0691	–	–	0.0701	–	0.053	–
